This is one part of the list. The energies were worked out here from pooled read counts, against the library average; single values are noisy.
Molecular target: T1, Pho4 (S. cerevisiae) (UniProt P07270)
T1 sequence: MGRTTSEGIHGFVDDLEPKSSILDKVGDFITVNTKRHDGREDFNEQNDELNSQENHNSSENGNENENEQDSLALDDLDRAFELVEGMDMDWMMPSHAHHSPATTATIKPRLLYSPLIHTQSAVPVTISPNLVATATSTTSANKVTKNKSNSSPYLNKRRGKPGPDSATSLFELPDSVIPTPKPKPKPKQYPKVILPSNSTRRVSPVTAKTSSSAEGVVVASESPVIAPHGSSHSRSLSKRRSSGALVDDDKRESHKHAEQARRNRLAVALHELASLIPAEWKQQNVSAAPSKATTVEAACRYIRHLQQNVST
Assay: relative binding free energy (BET-seq); higher = weaker binding
Conditions: reference: library average

Sequence | relative binding free energy
AGTTCCACGTGGTATA | 0.12 kcal/mol
TTCTGCACGTGTTTGG | 0.04 kcal/mol
TGTCACACGTGTAGGT | -0.01 kcal/mol
GTATTCACGTGTAGTC | 0.25 kcal/mol
AGGGTCACGTGGTGGC | 0.01 kcal/mol
TTAAACACGTGGTTAT | 0.09 kcal/mol
CTTTGCACGTGGCAGT | -0.04 kcal/mol
TTTCACACGTGGATGT | 0.03 kcal/mol
GGGGACACGTGGGAAT | 0.01 kcal/mol
GTTTGCACGTGGTCGC | -0.1 kcal/mol
GTTGTCACGTGGTAAT | 0.06 kcal/mol
GAAGACACGTGGGGGA | 0.03 kcal/mol
GGTCGCACGTGTGAGT | -0.02 kcal/mol
TACGGCACGTGGGTGT | -0.2 kcal/mol
TCCTGCACGTGATTGT | 0.2 kcal/mol
GAAGCCACGTGGTTGG | -0.06 kcal/mol
GTTAACACGTGGGTTT | 0.01 kcal/mol
TTTGACACGTGGTTGG | -0.05 kcal/mol
ATCTTCACGTGGCTTT | 0.29 kcal/mol
TTCGTCACGTGGGATA | -0.02 kcal/mol
CTCGGCACGTGGCGTG | -0.1 kcal/mol
CATTTCACGTGTATTT | 0.38 kcal/mol
GTGCTCACGTGTAGGG | 0.11 kcal/mol

Sequence | relative binding free energy
CGTTTCACGTGGTATT | 0.11 kcal/mol
TTAAACACGTGATATG | 0.12 kcal/mol
CCTGTCACGTGTATTT | 0.19 kcal/mol
ATACGCACGTGTTTTA | -0.08 kcal/mol
TCTGCCACGTGGATGG | 0.08 kcal/mol
AGAAGCACGTGTTTTG | -0.15 kcal/mol
TGAGTCACGTGAGAAG | 0.42 kcal/mol
GGTTTCACGTGAGTAA | 0.44 kcal/mol
TTGTCCACGTGTTCTT | 0.03 kcal/mol
TATGCCACGTGTATTT | 0.05 kcal/mol
AGGCTCACGTGGGGGT | 0.04 kcal/mol
ATATGCACGTGTATAT | -0.05 kcal/mol
GTTTTCACGTGTGGGG | 0.34 kcal/mol
CCTTGCACGTGTGGGA | -0.03 kcal/mol
ATTGACACGTGTTAGT | -0.21 kcal/mol
ATGGGCACGTGAGACG | 0.03 kcal/mol
TGTGTCACGTGTCTAT | 0.03 kcal/mol
ATCGACACGTGAGTTG | 0.26 kcal/mol
GGCGGCACGTGGGCTG | -0.23 kcal/mol
CAAGGCACGTGCGGGG | -0.18 kcal/mol
GATTGCACGTGCGTTG | -0.04 kcal/mol
TTAATCACGTGAAGGG | 0.29 kcal/mol
TGATGCACGTGTCTTA | -0.05 kcal/mol

Sequence | relative binding free energy
TGTGACACGTGCTTTT | -0.01 kcal/mol
GGTTGCACGTGTGAAA | 0.18 kcal/mol
AGTGTCACGTGGCGGG | -0.01 kcal/mol
TCGCTCACGTGGGTGA | 0.15 kcal/mol
CTAATCACGTGTGGAG | 0.3 kcal/mol
AAGTACACGTGAGTTT | 0.36 kcal/mol
CGAAACACGTGTAGGG | 0.09 kcal/mol
ATACACACGTGGGGTT | -0.09 kcal/mol
GATAGCACGTGGCGGG | -0.15 kcal/mol
TTCGTCACGTGTGATA | -0.04 kcal/mol
GTAGGCACGTGACGGG | -0.02 kcal/mol
AGGAGCACGTGGCGGG | -0.13 kcal/mol
TACGGCACGTGGGTTG | -0.17 kcal/mol
TTTTACACGTGACTTG | 0.27 kcal/mol
AGGAGCACGTGAAAGG | 0.2 kcal/mol
CTTAACACGTGGATGT | -0.04 kcal/mol
GTTGTCACGTGTTGGG | 0.24 kcal/mol
GTCTTCACGTGTGTGT | 0.31 kcal/mol
GATTGCACGTGATATG | 0.06 kcal/mol
AGTGTCACGTGGCGAG | -0.06 kcal/mol
GGCTTCACGTGCGGGT | 0.27 kcal/mol
TAATTCACGTGAATGG | 0.46 kcal/mol
GGGGGCACGTGATTTG | 0.14 kcal/mol

Sequence | relative binding free energy
TTTGTCACGTGCCGGT | -0.05 kcal/mol
TTGGCCACGTGTGGAT | -0.01 kcal/mol
GTAGTCACGTGTGTAG | 0.15 kcal/mol
GGGGACACGTGGGTTG | -0.14 kcal/mol
GGGTTCACGTGAGTGC | 0.4 kcal/mol
AGATTCACGTGTGCAT | 0.18 kcal/mol
GGGTACACGTGTCGTG | 0.15 kcal/mol
GCGTGCACGTGTGGAT | 0.08 kcal/mol
TTAGGCACGTGATTTA | 0 kcal/mol
TGTGTCACGTGAGAAA | 0.35 kcal/mol
AGTGCCACGTGAATGT | 0.15 kcal/mol
ATAACCACGTGGGTGG | -0.19 kcal/mol
TGGCACACGTGGCTGT | 0.03 kcal/mol
CGTGGCACGTGTAGAG | -0.02 kcal/mol
TCTGACACGTGGTTTG | 0.03 kcal/mol
CGGGGCACGTGGTTCA | -0.09 kcal/mol
GTGAGCACGTGGAAGT | 0.1 kcal/mol
GGGGACACGTGCGGGT | 0.07 kcal/mol
GCGAGCACGTGGGGTT | -0.23 kcal/mol
TCTGGCACGTGCGGGG | -0.11 kcal/mol
TGAAACACGTGCGTGG | -0.16 kcal/mol
TAATGCACGTGCTTTG | -0.08 kcal/mol
GACGGCACGTGGTGGT | 0.03 kcal/mol

Sequence | relative binding free energy
TCTGTCACGTGCGGGG | 0.05 kcal/mol
TTAGGCACGTGGGGTG | -0.24 kcal/mol
GATGGCACGTGTTCGA | -0.1 kcal/mol
ATTTGCACGTGAACGT | 0.12 kcal/mol
TTGCGCACGTGTATGT | -0.16 kcal/mol
TTAGGCACGTGAGTAT | 0.26 kcal/mol
TGCTACACGTGGTGTG | -0.05 kcal/mol
GGTTACACGTGTGCTG | 0.14 kcal/mol
ATGAGCACGTGTATGG | -0.05 kcal/mol
ATAAGCACGTGTAGTG | -0.07 kcal/mol
TCTTACACGTGTATTT | 0.14 kcal/mol
GCGTGCACGTGCTGGG | -0.07 kcal/mol
TTGTTCACGTGCGGGG | 0.25 kcal/mol
GGACTCACGTGAGTGT | 0.22 kcal/mol
TGATCCACGTGTTGGT | 0.01 kcal/mol
TTGTACACGTGCAAGG | 0.1 kcal/mol
GTACTCACGTGCGGGG | 0.2 kcal/mol
GGTTGCACGTGTTTCG | 0.17 kcal/mol
AGAGCCACGTGGGTGG | -0.26 kcal/mol
GTAGTCACGTGGGGCT | 0.01 kcal/mol
TTTATCACGTGAAGTA | 0.31 kcal/mol
TGGTTCACGTGGAGCG | 0.16 kcal/mol
GATTTCACGTGGTAAG | 0.29 kcal/mol

Reference: the BET-seq Pho4 binding data (Le et al. 2018)
